# According to the supplement of paper PMC3334620:
# Whole data set: some 33,000 sequences, median “E-score (-0.5 to 0.5)” near -0.036, cut for the highest 2% near 0.37. The list shows a part of the results.
# Target: T1, Yer064c (UniProt P40041)
# T1 sequence: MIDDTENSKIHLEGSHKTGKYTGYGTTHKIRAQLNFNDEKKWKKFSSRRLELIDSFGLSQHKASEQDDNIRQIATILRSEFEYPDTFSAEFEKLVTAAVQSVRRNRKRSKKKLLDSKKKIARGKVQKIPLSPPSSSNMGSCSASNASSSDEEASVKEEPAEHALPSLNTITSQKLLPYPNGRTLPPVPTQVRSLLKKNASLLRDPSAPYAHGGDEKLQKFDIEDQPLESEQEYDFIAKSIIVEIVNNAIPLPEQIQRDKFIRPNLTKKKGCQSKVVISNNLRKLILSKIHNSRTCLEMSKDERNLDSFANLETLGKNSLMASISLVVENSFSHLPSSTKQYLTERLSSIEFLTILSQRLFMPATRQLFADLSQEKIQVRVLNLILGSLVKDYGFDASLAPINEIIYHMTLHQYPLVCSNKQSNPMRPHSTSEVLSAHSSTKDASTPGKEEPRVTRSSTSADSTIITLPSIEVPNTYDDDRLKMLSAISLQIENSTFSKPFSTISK
# Assay: PBM E-score (8-mer binding enrichment) (E-score (-0.5 to 0.5)); higher = stronger / more preferred TF binding; most listed sequences are background and not binding sites
# Details: protein concentration: 200 nM; construct: GST-full length
# Procedure, shortened: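 Using PURExpress in vitro transcription/translation, GST-tagged yeast transcription factors were made in full-length or DNA-binding-domain form. These were applied at about 100-200 nM to double-stranded universal all-10-mer Agilent arrays, and bound protein was detected with fluorescent anti-GST. Scans were normalised with masliner before the Universal PBM Analysis Suite assigned E-scores to ungapped eight-base words pooled with their reverse complements.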
row,Sequence,PBM E-score
1,ACGTGTCG,-0.087
2,GATTCGGA,0.11
3,TCCCTCAA,-0.156
4,GCTAGGAC,0.133
5,CCTACCCA,-0.0884
6,GGATATAA,0.0494
7,ATGGTCGC,-0.226
8,CATTGGCC,-0.151
9,ATACTCAG,0.214
10,AGAGACCT,-0.0554
11,CCATGATA,-0.117
12,GTGCACCA,-0.178
13,ACATAAGC,0.051
14,GACTCTCA,0.418
15,ACACACAT,0.26
16,GCCTCGGA,-0.311
17,CAGTTGAG,0.0627
18,ACACAGCC,0.00389
19,CGACACAA,0.00733
20,GCTGCGAA,0.00261
21,AGATCACT,0.0464
22,GGTTCTTA,-0.12
23,TACGTCTA,-0.00987
24,GGCCGGGA,-0.134
25,CAGATAGC,-0.0433

row,Sequence,PBM E-score
1,AAGTACTT,-0.0497
2,AATCACAT,0.398
3,AGGTCGTC,-0.0696
4,AAGCGTGG,-0.0306
5,AGAACGCT,-0.155
6,GACCTACA,-0.0419
7,AAGAAATT,0.119
8,CCAATACG,-0.14
9,GACACGGA,-0.0945
10,CTTACCCA,0.209
11,TTCCAGAA,-0.015
12,GAGATACA,0.145
13,AGGATCAG,-0.0168
14,CTGCAATA,0.0482
15,ACTTCAGC,-0.0714
16,GATAGGAA,0.0134
17,GGATTACC,0.116
18,TGTGACAA,-0.0104
19,GTTTCCTA,-0.156
20,ACAGCAAC,0.034
21,ATCCTAAG,0.0883
22,AAAACGGA,-0.0243
23,CATTGTAC,0.124
24,CGTATCAC,-0.0817
25,CATGGTAG,0.153

row,Sequence,PBM E-score
1,AAAGACGT,-0.00249
2,GATACAAA,0.122
3,CAGCGGGG,-0.287
4,GGGGTCGA,-0.187
5,ATTATCGA,0.0782
6,GACTGAGC,0.24
7,CATCATAC,0.215
8,ACGAAGCA,-0.0559
9,ATATCGAG,0.0408
10,AATGCTCT,-0.178
11,CCCTCCTA,-0.145
12,GCAAATAC,-0.125
13,AGAGTTAC,0.0127
14,CATTATAA,-0.0346
15,GCCTAGTA,-0.12
16,GATGGAAC,-0.201
17,AATGTTTG,-0.201
18,ACAGTTGG,-0.2
19,AAGCATAG,-0.195
20,AACATGCT,-0.129
21,GTAACGAA,0.169
22,TAGACAGA,0.149
23,ACCGATTG,0.0282
24,AATTGTCA,0.0267
25,CGGGGCCC,-0.13

row,Sequence,PBM E-score
1,CAATATTG,0.116
2,AGATTCAA,0.314
3,CCCATACG,-0.2
4,CGTATGCA,-0.122
5,AGAGAGGC,-0.278
6,AAAAGAGT,0.24
7,GAAAGCTC,-0.248
8,CAGCCAGA,-0.0407
9,GAGGGTCA,-0.125
10,GTACATGA,0.161
11,CAACGAGG,0.059
12,CATAAGCC,0.0224
13,CACCACGC,-0.0903
14,TCTAGTCA,0.447
15,CTGGCATA,-0.0817
16,GCTCTTAC,0.0598
17,CCGCGGTA,-0.144
18,CAACGAGA,0.0887
19,TGCTCAAA,-0.133
20,ACCCCTCC,-0.0659
21,AAGCCACT,0.0435
22,CTAGCAAA,-0.0659
23,AAGGAGAT,-0.0304
24,ACGAGACT,0.289
25,CATTCGAC,0.105

row,Sequence,PBM E-score
1,CCGCAGGC,-0.164
2,ACCCTACA,-0.0523
3,AATTGGGC,-0.3
4,CCTAGTGC,-0.129
5,AAGCAGAA,-0.0576
6,GAAAGCTA,-0.199
7,GATTTTCA,0.0899
8,AGACAGTA,0.0971
9,AGGGGTAG,-0.0199
10,AACGTCTG,-0.174
11,AATATCAT,-0.0086
12,ACTCAACT,0.337
13,TCCACAAA,0.0257
14,AATCCTAA,0.0553
15,ACGATTTA,0.126
16,GGAATCCA,-0.115
17,GGTAACGA,0.072
18,ACGTATGA,0.213
19,CTACGGCC,-0.305
20,TGAATGCA,0.00125
21,CGTTCCCC,-0.263
22,CGGGGCAC,-0.288
23,CCGGAATC,0.0366
24,CACCCACA,-0.00783
25,CCACGGGA,-0.0711

row,Sequence,PBM E-score
1,GATTATCC,0.241
2,TAGACCCA,-0.0332
3,AGGTACAC,-0.0614
4,AGGAAGGG,-0.205
5,AAAAAAAA,0.0669
6,ACTGTAGC,-0.0346
7,AATCTTGG,0.0293
8,CGGCCGTA,-0.109
9,CTCTAGCA,0.00221
10,CCGCCAGG,-0.33
11,CAGTGAGC,-0.046
12,TCCTCCCA,-0.223
13,ATGGTACA,-0.0386
14,AGGGGTTG,-0.03
15,TGCGACAA,-0.042
16,GAAGAAGC,-0.161
17,ACCCGAAC,0.00326
18,CGCCCCCA,-0.362
19,AACGCGGA,-0.125
20,GGAGCCAA,-0.243
21,GCCGGGGA,-0.272
22,ATAGCATA,-0.0696
23,GCTACTAA,-0.101
24,ATTAGGGG,-0.112
25,CGGTCCCA,-0.0818

row,Sequence,PBM E-score
1,CCGGCGAA,-0.28
2,ACCCTGTC,-0.102
3,AGTAAGTA,0.168
4,AATCCGGG,-0.239
5,CGTCACGA,-0.0925
6,CTCTCCCC,-0.356
7,AGGCACTC,-0.0297
8,CGGCTACA,-0.00254
9,GCTTTTCA,-0.187
10,AATAGATA,-0.0234
11,AATGTTGT,-0.105
12,GTCACGTA,0.311
13,CTCGCGAG,0.16
14,CCGCTGCG,-0.148
15,ACTGGTTC,-0.0373
16,GGAGCCAC,0.00189
17,ACTATTAT,0.141
18,ATCGAGCA,-0.149
19,ATGGTCTC,-0.0418
20,CAAATGGG,-0.0333
21,ATACGTAA,0.0265
22,CCAACCAG,-0.113
